According to PubChem BioAssay AID1362 (SRMLSC, 2008):
The list shows a part of the results. Further columns of the screen follow, without active or inactive calls. Compounds called inactive in the main read-out are mostly missing here.

Assay: growth inhibition of WT strain, primary screen, mitochondrial fusion inhibitor project, WT and mutant strains, chemical genetic (AID 1362); note: tested in S. cerevisiae
Details: mitochondrial fusion phenotypic screen, at 10 µM
Work on `CCOC(=O)C1CCCN(c2c(C(=O)c3ccccc3)cnc3ccccc23)C1` (stereo unspecified) yielded an inhibition of -2.15%.
With `CCOc1c(OC(C)=O)ccc(/C=C/c2ccc3cccc(OC(C)=O)c3n2)c1[N+](=O)[O-]` the inhibition was 14%.
`CCNc1nc(NC(C)(C)C)nc(N2CCCCC2)n1` gave an inhibition of 71.2%.
`CNc1nc(-c2ccc(OC)cc2)c(-c2ccc(OC)cc2)s1` showed an inhibition of 34.9%.
In the case of `CCn1c(CNC(=O)c2ccco2)nnc1SCC(=O)Nc1cc(C(F)(F)F)ccc1Cl`, the inhibition is reported as -5.01%.
For `CCOC(=O)C1=C(C)C(c2cccc(Oc3ccccc3)c2)NC(=S)N1` (stereo unspecified), the inhibition was 0.79%.
For `CN(C1=C(NC(=O)c2ccc(Cl)cc2)C(=O)c2ccccc2C1=O)c1ccccc1`, the inhibition was 30.9%.
For `CCC(=O)Nc1cccc(C(=O)/C=C/c2cc(Br)ccc2OC)c1`, the inhibition was 55.8%.
In the case of `CC(c1ccccc1)N(CCC(c1ccccc1)C1CCOC(C)(C)C1)C(=O)c1ccco1` (stereo unspecified), the inhibition is reported as -3.75%.
For `O=C(NC(NNc1ccc([N+](=O)[O-])cc1)(C(F)(F)F)C(F)(F)F)c1ccc(Cl)cc1`, the inhibition was 43.6%.
`Cc1ccccc1OCCNc1cc(N2CC(C)NC(C)C2)ccc1[N+](=O)[O-]` (stereo unspecified) showed an inhibition of 83.9%.
Compound `CCS(=O)(=O)Nc1ccc(-c2cc(-c3ccccc3)c3cc(C)ccc3n2)cc1` has an inhibition of 10.2%.
In the case of `CCc1ccc(NC(=O)c2cc3c(C)nc4ccccc4c3o2)cc1`, the inhibition is reported as 12.7%.
For `Cc1ccc(-n2nnnc2SCC(=O)N2CCc3ccccc3C2)c(C)c1`, the inhibition was 51.4%.
For `Cc1cc(S(=O)(=O)N2CCN(c3ccccc3C)CC2)ccc1F`, the inhibition was 32.6%.
Work on `C/C(=N\NC(=S)NC1CCCCC1)c1cccs1` yielded an inhibition of 66.5%.
In the case of `CCOC(=O)C1=C(NC(=S)NC(=O)c2ccccc2)c2ccccc2CC1(C)CC` (stereo unspecified), the inhibition is reported as 7.46%.
With `COc1cc(SC)ccc1C(=O)NCC1CCCO1` (stereo unspecified) the inhibition was 9.87%.
`CCOc1ccc(NC(=S)NCCCc2ccccc2)cc1` gave an inhibition of 46.6%.
In the case of `CCOP(=O)(c1ccccc1)c1nc(-c2ccccc2Cl)oc1N1CCCCC1` (stereo unspecified), the inhibition is reported as 18.6%.
`Cc1noc(C)c1C(=O)OCC(=O)Nc1ccccc1Oc1ccccc1` gave an inhibition of 50.7%.
In the case of `CCN(CC)CCOc1ccc(/C(=C(/Cl)c2ccccc2)c2ccccc2)cc1`, the inhibition is reported as 97.1%.
For `CC(C)(C)[C@H]1C=C(C(=O)N2CCN(Cc3ccc4c(c3)OCO4)CC2)O[C@@H](OCc2ccc(CO)cc2)C1`, the inhibition was 24.9%.
Compound `O=C(COC(=O)c1ccc([N+](=O)[O-])s1)Nc1ncc(C(F)(F)F)cc1Cl` has an inhibition of 1.77%.
`CC(NC(=O)Nc1nnc(C(F)(F)F)s1)(C(F)(F)F)C(F)(F)F` gave an inhibition of 41%.
In the case of `COc1cc(C=C(c2nc3ccccc3s2)c2nc3ccccc3s2)cc(OC)c1O`, the inhibition is reported as 26.8%.
In the case of `O=C(C1=C[C@H](C2CCCCC2)C[C@H](OCc2ccc(CO)cc2)O1)N1CCN(Cc2ccc3c(c2)OCO3)CC1`, the inhibition is reported as 29.5%.
Work on `NNC(=O)/C(=N/Nc1ccccc1)S(=O)(=O)c1ccc(Cl)cc1` yielded an inhibition of 66%.
Work on `CCc1c(C)sc(NC(=S)N2CC(C)OC(C)C2)c1C(=O)OC` (stereo unspecified) yielded an inhibition of 49.6%.
With `C/C(=N\NC(=S)NC1CCCCC1)c1c(F)cccc1F` the inhibition was 31.7%.
Work on `c1ccc(-c2noc(-c3ccc4c(c3)OCO4)n2)nc1` yielded an inhibition of 49.4%.
With `O=c1oc2cc(O)ccc2cc1-c1nc2c(s1)CCc1ccccc1-2` the inhibition was 96.9%.
With `Fc1ccc(C2c3cccn3CCN2C(=S)Nc2cccc(Br)c2)cc1` (stereo unspecified) the inhibition was 58.8%.
In the case of `S=c1[nH]nc(COc2ccccc2)n1/N=C/C=C/c1ccccc1`, the inhibition is reported as 38.1%.
`CN1CCN(C2=Cc3cc(Cl)ccc3Sc3cc(F)ccc32)CC1` showed an inhibition of 95.3%.
`O=c1cc(N2CCCCC2)c(-c2ccccc2)nn1Cc1cccc(Cl)c1` showed an inhibition of 37%.
For `Cc1ccc(O)c(C(=O)/C=C/c2ccc3c(c2)OCCO3)c1`, the inhibition was 24%.
For `COc1ccc2c(c1)CCC1=C2NC(=S)NC1c1ccc(N(C)C)cc1` (stereo unspecified), the inhibition was 79.1%.
Work on `O=C(Nc1ccc(F)cc1)c1ccccc1Oc1ccc(C(F)(F)F)cc1[N+](=O)[O-]` yielded an inhibition of -0.42%.
For `COc1ccccc1NC(=O)COC(=O)c1ccc([N+](=O)[O-])s1`, the inhibition was 22.8%.
For `O=C(Nc1nnc(C(F)(F)F)s1)c1ccc(Br)s1`, the inhibition was 59.6%.
Compound `CCc1nnc(NC(=O)c2ccc(S(=O)(=O)N(CC(C)C)CC(C)C)cc2)o1` has an inhibition of -18.1%.
Work on `CCOCCCNC(=S)NCCCNc1nc2c(C)c(C)ccc2cc1C#N` yielded an inhibition of 55.3%.
Work on `O=[N+]([O-])/C=C/c1c(OCc2ccccc2)ccc2ccccc12` yielded an inhibition of 69.4%.
In the case of `CC1CCCN(C(=O)CSc2nnc(-c3cccnc3)n2C2CCCCC2)C1` (stereo unspecified), the inhibition is reported as -16.5%.
Compound `c1ccc2cc(CSCc3nc4ccccc4[nH]3)ccc2c1` has an inhibition of 60.2%.
With `CCOc1nc(NC2CCCCC2)nc(NC(C)(C)C)n1` the inhibition was 35.9%.
`c1ccc(C(c2ccccc2)c2nc(-c3cccnc3)no2)cc1` showed an inhibition of 67.4%.
Work on `Brc1ccc2c(c1)OCCOCCOc1cc(Br)ccc1OCCOCCOCCO2` yielded an inhibition of 79.8%.
In the case of `O=C(COc1ccc(-c2ccccc2)cc1)N/N=C/c1cc(O)ccc1Br`, the inhibition is reported as 94%.
For `O=C(Nc1ccccc1N1CCOCC1)c1cccc(F)c1`, the inhibition was 25.2%.
Compound `COCC(=O)N1CCCC(C(=O)c2ccc(-c3ccccc3)c(F)c2)C1` (stereo unspecified) has an inhibition of 53%.
In the case of `CN1/C(=C\C(=O)Nc2cccc(Cl)c2)C(C)(C)c2ccccc21`, the inhibition is reported as 8.91%.
For `CSc1ccc(OC2CCN(Cc3ccccc3)CC2)cc1`, the inhibition was 44.5%.
`O=C(Nc1cccc(F)c1)N(Cc1ccc(Cl)cc1)CC(O)C(F)(F)F` (stereo unspecified) gave an inhibition of 49.9%.
For `CCN(CC)c1ccc(C(=S)NC2CCCCC2)cc1`, the inhibition was 62%.
In the case of `CC1(C)CC(C(CCN(Cc2ccccc2)C(=O)c2ccco2)c2ccc(F)cc2)CCO1` (stereo unspecified), the inhibition is reported as -3.84%.
In the case of `Cc1cccc(-n2ncc3c(N(C)Cc4ccccc4)ncnc32)c1`, the inhibition is reported as 8.71%.
With `O=C(COC(=O)C1(c2ccc(Cl)cc2)CCCC1)Nc1ncc(C(F)(F)F)cc1Cl` the inhibition was 15.7%.
In the case of `CC(=O)N(Cc1ccc(F)cc1)C1=C(NCCc2ccccc2)C(=O)c2ccccc2C1=O`, the inhibition is reported as 28.8%.
With `CNC(=O)c1nnsc1S(=O)(=O)c1ccc(Cl)cc1` the inhibition was 67.7%.
For `CC(C)Cc1ccc(C(C)C(=O)OCC(=O)c2c[nH]c3ccccc23)cc1` (stereo unspecified), the inhibition was 19.1%.
For `CC(OC(=O)c1ccccc1Nc1ccc(SC(F)F)cc1)C(N)=O` (stereo unspecified), the inhibition was 54%.
Work on `Clc1ccc(Cn2c(/C=C/c3ccco3)nc3ccccc32)cc1` yielded an inhibition of -11.2%.
Compound `c1ccc(CNc2nc(-c3cccs3)nc3ccccc23)cc1` has an inhibition of 19.9%.
Compound `N#Cc1sc2nc(C3CC3)cc(-c3ccc(Cl)cc3)c2c1N` has an inhibition of -15.2%.
`CC(C)Cn1c(/C=N/Nc2nc3ccccc3[nH]2)nc2ccccc21` showed an inhibition of 46.9%.
For `O=C(/C=C/c1ccccc1[N+](=O)[O-])c1ccccc1Br`, the inhibition was 59.9%.
Compound `Cc1cc(C)nc(N2CCCC(C(=O)NCc3cccs3)C2)n1` (stereo unspecified) has an inhibition of 4.83%.
In the case of `CC12CC3CC(C)(C1)CC(C(=O)NC(=S)N1CCCCC1)(C3)C2`, the inhibition is reported as 77.2%.
For `CCOc1ccc(-n2cc(-c3ccccc3)c3c(N4CCOCC4)ncnc32)cc1`, the inhibition was 39.4%.
For `O=C(N/N=C/c1cn(-c2cccs2)nc1-c1ccccc1)c1ccccc1O`, the inhibition was 44.5%.
`Cc1ccc(NC(=O)C2C(c3ccccc3)C2(Cl)Cl)c(C)c1` (stereo unspecified) showed an inhibition of 61.5%.
`O=C(COC(=O)c1ccccc1Cc1ccccc1)Nc1ccc(SC(F)F)cc1` gave an inhibition of 2.37%.
Compound `O=[N+]([O-])c1c(C(Cl)Cl)nn(-c2ccc(Cl)cc2)c1N1CCCCC1` has an inhibition of 44%.
`CCCCN(C)C(=S)Nc1ccc(Oc2ccccc2)cc1` showed an inhibition of 37.2%.
Work on `O=C(CNC(=S)N(Cc1ccccc1)Cc1ccccc1F)NCc1ccc(Cl)cc1` yielded an inhibition of 17.7%.
In the case of `C=CCC1(C#N)C(SC)=NC2=C(C(=O)CC(C)(C)C2)C1c1ccc(Br)cc1` (stereo unspecified), the inhibition is reported as 24.6%.
Compound `CC(/C=N/n1c(-c2ccco2)n[nH]c1=S)=C\c1ccccc1` has an inhibition of 44.2%.
With `Cc1ccc(SCCNC(=S)Nc2cc(C)cc(C)c2)cc1` the inhibition was 63.9%.
In the case of `CCCc1cc(-c2n[nH]c(=S)n2C(C)c2ccccc2)cs1` (stereo unspecified), the inhibition is reported as 14.7%.
Work on `CCSC1=NC(C)(C)C=C(/C=C/c2ccc(Cl)cc2Cl)N1` yielded an inhibition of 31.9%.
`FC(F)(F)c1nc(N2CCCC2)ncc1-c1nnnn1-c1ccc(Cl)cc1` gave an inhibition of 26.8%.
Work on `CCCNC(=S)Nc1ccc2nc(-c3ccccn3)c(-c3ccccn3)nc2c1` yielded an inhibition of 5.34%.
In the case of `Cc1nn(-c2ccccc2)c(C)c1NC(=O)c1ccc(S(=O)(=O)N2CCCC2)cc1`, the inhibition is reported as -6.28%.
Compound `CCN1c2ccccc2-c2nc3ccccc3n2C1c1cccs1` (stereo unspecified) has an inhibition of 44.9%.
`COc1cc2c(cc1NC(=O)CSc1nc3ccccc3[nH]1)oc1ccccc12` showed an inhibition of 14%.
In the case of `c1ccc(-c2noc(-c3cccc4ccccc34)n2)cc1`, the inhibition is reported as 61.1%.
With `CCC1(C)OCC(Cn2c3ccccc3c3ccccc32)O1` (stereo unspecified) the inhibition was 47.1%.
Work on `CCCc1ccc(-c2cc(C(=O)N/N=C/c3ccc([N+](=O)[O-])o3)c3ccccc3n2)cc1` yielded an inhibition of 60%.
For `CCOC(=O)c1c(N)sc(C(O)(C(F)(F)F)C(F)(F)F)c1-c1ccc(Cl)cc1`, the inhibition was 89.3%.
Work on `CC(=O)N1N=C(c2ccc(C)cc2)OC1c1ccc(C(C)C)cc1` (stereo unspecified) yielded an inhibition of 45.9%.
Compound `CC(C)C(=O)Nc1cc(S(=O)(=O)Nc2ccc(Cl)cc2)ccc1Cl` has an inhibition of 19.7%.
`CCC(=C(c1ccc(OC)cc1)c1ccc(OC)cc1)c1cn(CC(O)CN(CCO)CCO)c2ccccc12` (stereo unspecified) gave an inhibition of 95.4%.
`Cc1ccc(CNC(=O)c2ccc(Cn3nc(C)c(Cl)c3C)o2)cc1` showed an inhibition of 63.2%.
For `N=c1ccn(CC(=O)c2ccc(-c3ccccc3)cc2)cc1`, the inhibition was 63.9%.
Compound `CCCn1c(/C=N/Nc2nc3ccccc3[nH]2)nc2ccccc21` has an inhibition of 49.5%.
`Cc1cc(Cl)ccc1OCc1n[nH]c(=S)n1C1CCCCC1` gave an inhibition of 70%.
With `Cc1cc(C)c(S(=O)(=O)Nc2ccc3c(c2)CCC3)c(C)c1` the inhibition was 62.8%.
`Cc1ccc(C)c(NC(=S)NCCc2ccc(F)cc2)c1` showed an inhibition of 35%.
`Cc1nc(NC(=O)COC(=O)CCS(=O)(=O)c2ccccc2Cl)c(Cl)cc1Cl` gave an inhibition of 30.8%.
Work on `O=C(Nc1cccc(Cl)c1)c1csc(-c2ccccc2)n1` yielded an inhibition of 37.2%.
With `CCOC(=O)C(=NC1CCS(=O)(=O)C1)NNc1ccc(Br)cc1` (stereo unspecified) the inhibition was 52.1%.
With `CCc1ccccc1N(CC)C(=O)CCc1nc(-c2ccc(C)cc2)no1` the inhibition was 22.1%.
`COC(=O)CNC(=O)CNC(=O)c1nn(-c2ccc(OC)c(Cl)c2)c(=O)c2ccccc12` gave an inhibition of 5.52%.
For `CC(C1CC2CCC1C2)n1c(-c2ccco2)n[nH]c1=S` (stereo unspecified), the inhibition was 36.7%.
